{"source": "patent US4079139A", "about": "“Flavone derivatives” (priority 1974, dated 1978)", "origin": "cited, not measured here", "tested_on": "toxicity of sodium Pentobarbital", "conditions": "background statement, in words; cited from earlier work"}
{"smiles": "CC(N)Cc1ccccc1", "note": "(stereo not shown) [amphetamine]", "values": [{"measurement": "effect on the toxicity of the barbiturate", "value": "do not modify the toxicity of the barbiturate"}]}
